Some of the results follow. The list includes weakly bound sequences.
target: MaxL homodimer (UniProt P61244); assay: universal protein-binding microarray (PBM); conditions: PBS-based mixture, 10 nM His-tagged protein dimer, 2% milk, 200 ng/uL BSA, 50 ng/uL salmon testes DNA, 0.02% TX-100; detection with Alexa 488 anti-His …; high values mean tight binding; most listed sequences are background and not binding sites; double strand, one strand shown
UniProt P61244, sequence (P61244 whole entry): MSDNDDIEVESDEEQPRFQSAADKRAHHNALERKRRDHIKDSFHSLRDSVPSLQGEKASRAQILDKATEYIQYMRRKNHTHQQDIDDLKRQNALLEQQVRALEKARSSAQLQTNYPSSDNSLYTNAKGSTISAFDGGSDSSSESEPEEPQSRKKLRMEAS

Row | Sequence | binding signal (normalized occupancy)
1 | ATTGTTAC | 0.0769
2 | CGCGATCC | 0.0768
3 | CTTGGCTC | 0.0739
4 | GCCATCTA | 0.0757
5 | TACTACCA | 0.0762
6 | AAATCCCA | 0.0748
7 | ACGCGGCT | 0.081
8 | GAGATTCC | 0.0754
9 | ACCCATTG | 0.0802
10 | CAGGGGCA | 0.0738
11 | GCCTGGCC | 0.0671
12 | TATATGGA | 0.0939
13 | AATTAAAG | 0.0785
14 | ATCGGTCA | 0.0748
15 | GGCCCAAC | 0.072
16 | ACGATAGA | 0.0814
17 | GCGGGAGC | 0.066
18 | ATGGCCAA | 0.0741
19 | CCCTACAG | 0.075
20 | ATGTCGCC | 0.0839
21 | GACGGTGA | 0.0751
22 | AATATTAC | 0.0808
23 | ATGCGCCA | 0.0906
24 | GGAGGAGA | 0.0745
25 | GCCGCTTA | 0.0707

Row | Sequence | binding signal (normalized occupancy)
26 | AATCCTTA | 0.0733
27 | CAAACTGA | 0.0723
28 | TACCTTAA | 0.072
29 | CGCAAGGA | 0.0798
30 | CGGCACAC | 0.0795
31 | ACCTGAGC | 0.0767
32 | TCTGCAGA | 0.0722
33 | GAAAGGAC | 0.0662
34 | CCTAAGGC | 0.0706
35 | GAATACTA | 0.0855
36 | AAACGTAT | 0.0746
37 | AAGAGGCG | 0.07
38 | CATTTCGA | 0.0759
39 | CTCCGAAC | 0.0676
40 | CGCAAATA | 0.0708
41 | ACCATCAC | 0.0836
42 | GCACTGAA | 0.0723
43 | CGGATAGC | 0.0762
44 | CCGTATTC | 0.0748
45 | AAAAGCAT | 0.0791
46 | CATGACGG | 0.0797
47 | CCCAGGAC | 0.0694
48 | ACTTGGTA | 0.0735
49 | CTGGACTA | 0.072
50 | CAGCTGCC | 0.0686

Row | Sequence | binding signal (normalized occupancy)
51 | GGGCATAC | 0.0778
52 | AGACTAGA | 0.075
53 | CCTACAAG | 0.0711
54 | CTGTGATA | 0.0741
55 | GTCCTCGA | 0.0717
56 | GTCATGAA | 0.0778
57 | AACTCCAT | 0.0767
58 | ATCTTTAG | 0.0754
59 | ATACAAAC | 0.0743
60 | GCGCCTAC | 0.0735
61 | ATAAATAG | 0.0754
62 | CAGGAGAA | 0.0737
63 | AATAGCAG | 0.0748
64 | CAATGAGA | 0.079
65 | ACCTGGAT | 0.0753
66 | TTGACAAA | 0.0738
67 | TATGACAA | 0.0803
68 | CAGCTCTC | 0.0656
69 | AGACGATC | 0.0732
70 | GAAGCCAA | 0.0689
71 | AAAGTAAG | 0.0712
72 | GACACCGA | 0.0769
73 | CCTACCAC | 0.0813
74 | GAAAGAGA | 0.0724
75 | CGGGTAAG | 0.0738

Row | Sequence | binding signal (normalized occupancy)
76 | CCGAGGAC | 0.0697
77 | AACAACCC | 0.0789
78 | AACTGGAC | 0.0692
79 | ATACTTGG | 0.0799
80 | GACAATGA | 0.0791
81 | CTACCTAG | 0.0747
82 | GCTTCCCC | 0.0787
83 | AATAGGGC | 0.0746
84 | AGCCGGAC | 0.0649
85 | CCAGGGCG | 0.0667
86 | GTCAAAAA | 0.0705
87 | CCTAGCTA | 0.0749
88 | AGCCTAAT | 0.0727
89 | AACGATAC | 0.0816
90 | AAGTCTTA | 0.0766
91 | CACTGACC | 0.0728
92 | AGTGCTGC | 0.072
93 | AGAGGTAG | 0.0697
94 | AACTCCAC | 0.0767
95 | ACTCTGTG | 0.0707
96 | CGACCCAA | 0.0727
97 | CCATAATC | 0.0823
98 | CGAGTGGA | 0.0775
99 | ACACCGCT | 0.0738
100 | CTCGACGC | 0.0751

Row | Sequence | binding signal (normalized occupancy)
101 | AATACGAT | 0.0801
102 | CCTAACGA | 0.075
103 | GAGAGACC | 0.0677
104 | CAAGTAAG | 0.0749
105 | AAATGGGG | 0.0777
106 | CTGTCTTA | 0.0726
107 | ATCTTGAG | 0.0774
108 | TCCTCAAA | 0.0768
109 | AGGTGACC | 0.0766
110 | ATCGAACA | 0.0764
111 | CCACCCGG | 0.0772
112 | GCACCAGA | 0.0705
113 | TATGATCA | 0.0795
114 | CGTTGGAA | 0.0835
115 | CTACCACA | 0.0867
116 | ATGTAAAG | 0.0767
117 | ACCACTAC | 0.077
118 | GCCTAAAA | 0.0696
119 | CAACTTCC | 0.0736
120 | GGGTCGTA | 0.0757
121 | CGGTGGAG | 0.0737
122 | AAAATTAG | 0.0735
123 | GATCTAAC | 0.0787
124 | CACTTGAC | 0.077
125 | CCATCGCC | 0.0714

Row | Sequence | binding signal (normalized occupancy)
126 | CGCTTGAG | 0.0665
127 | AACTTTGC | 0.0667
128 | AAAAGATG | 0.0789
129 | ATGTGATA | 0.0999
130 | CGTGTACA | 0.0823
131 | ACGTCCAC | 0.0784
132 | ATTGTCAG | 0.0763
133 | ACATTGTG | 0.0901
134 | AGTGTGTG | 0.0828
135 | AATATCCC | 0.0803
136 | CCCGCGAG | 0.0726
137 | ACTGCCAC | 0.0753
138 | AAATTGTA | 0.0768
139 | GGCCGGTA | 0.0757
140 | AACATCTC | 0.0748
141 | GGTTATCA | 0.0822
142 | CAGTCCAC | 0.078
143 | CATAGACG | 0.0804
144 | ACCTGCCG | 0.0699
145 | ACATAAAT | 0.0889
146 | GTTTCTCA | 0.0753
147 | CTGTCGCA | 0.0742
148 | AAGGACAG | 0.0739
149 | ATAGTCCG | 0.0727
150 | GATCGGCA | 0.0763

Row | Sequence | binding signal (normalized occupancy)
151 | GAACGAAC | 0.0739
152 | CGGCGGAC | 0.0709
153 | CGTCCACG | 0.0822
154 | AGCATCCT | 0.0767
155 | ATCCTCCA | 0.0797
156 | CTCAATGA | 0.075
157 | CAAATAAA | 0.0762
158 | CCCAAACA | 0.0761
159 | GTAGACTA | 0.073
160 | AGGCGTAA | 0.0741
161 | AAAGGCCT | 0.0723
162 | CGGCCTGC | 0.069
163 | ATCAGCGG | 0.0723
164 | CAAGGCGG | 0.0729
165 | CAGTTTGC | 0.0742
166 | ATAACTCG | 0.0786
167 | CATCGAAG | 0.0787
168 | CATACGGA | 0.078
169 | GACTGCGC | 0.069
170 | CTAGTGGC | 0.0765
171 | CTACTGAC | 0.0715
172 | ACATGCGA | 0.0989
173 | AACAGACG | 0.075
174 | CGAAGAAA | 0.0773
175 | AACGTCGA | 0.0741

Row | Sequence | binding signal (normalized occupancy)
176 | ACGATCTA | 0.0767
177 | CAAGCAGG | 0.0708
178 | ACCCCCAT | 0.0853
179 | AACCGACA | 0.0771
180 | AGATGCTA | 0.0746
181 | ATCGCTCG | 0.0725
182 | ACCTAACG | 0.0729
183 | TCGGAGCA | 0.0695
184 | CTAGGAAG | 0.0688
185 | ACTATACG | 0.0815
186 | GTCCAGGA | 0.0695
187 | GCATGTGA | 0.157
188 | CCAATTCC | 0.0767
189 | ACTCGCCG | 0.0704
190 | GAATATCA | 0.0792
191 | CGACTCGA | 0.0696
192 | ACACAGGG | 0.0803
193 | ATTTGGCG | 0.0755
194 | AGCGTTTG | 0.0699
195 | GCAATTCC | 0.0732
196 | CCAGCTCG | 0.0653
197 | CGCTCCCG | 0.0639
198 | CGATATAC | 0.08
199 | GTGTCAGA | 0.0842
200 | AGAAAGGG | 0.0755

Row | Sequence | binding signal (normalized occupancy)
201 | GCACCTTA | 0.0768
202 | ATTTTGAA | 0.0713
203 | GGAGTGCC | 0.07
204 | CAAAAGAC | 0.0705
205 | AGATCGCC | 0.0749
206 | CTTGAGGC | 0.069
207 | AGGAGATC | 0.0735
208 | AATGCTTG | 0.0731
209 | ACGAACTC | 0.0737
210 | ATGGAATC | 0.0846
211 | AATTCAAC | 0.0747
212 | CAGAGCGG | 0.0655
213 | GAGCAGAC | 0.0757
214 | GCAATGTA | 0.0794
215 | CTGAGTGA | 0.069
216 | ACCGATAC | 0.075
217 | CGGATGAG | 0.0718
218 | ACTCTCTA | 0.075
219 | CTCTCAGC | 0.0719
